{"source": "paper PMC4336329", "about": "(PLoS ONE, 2015)", "note": "Screen size: about 310,000 compounds; about 14,000 (4.5%) showed an effect of 50% or more. Effects have a minus sign here. The list shows a part of the results.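 Note: peak tail current of the secondary pulse compared with the same well before compound.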"}
{"target": "human ether-à-go-go-related gene (hERG) potassium channel (human, UniProt Q12809)", "sequence (Q12809 whole entry, looked up)": "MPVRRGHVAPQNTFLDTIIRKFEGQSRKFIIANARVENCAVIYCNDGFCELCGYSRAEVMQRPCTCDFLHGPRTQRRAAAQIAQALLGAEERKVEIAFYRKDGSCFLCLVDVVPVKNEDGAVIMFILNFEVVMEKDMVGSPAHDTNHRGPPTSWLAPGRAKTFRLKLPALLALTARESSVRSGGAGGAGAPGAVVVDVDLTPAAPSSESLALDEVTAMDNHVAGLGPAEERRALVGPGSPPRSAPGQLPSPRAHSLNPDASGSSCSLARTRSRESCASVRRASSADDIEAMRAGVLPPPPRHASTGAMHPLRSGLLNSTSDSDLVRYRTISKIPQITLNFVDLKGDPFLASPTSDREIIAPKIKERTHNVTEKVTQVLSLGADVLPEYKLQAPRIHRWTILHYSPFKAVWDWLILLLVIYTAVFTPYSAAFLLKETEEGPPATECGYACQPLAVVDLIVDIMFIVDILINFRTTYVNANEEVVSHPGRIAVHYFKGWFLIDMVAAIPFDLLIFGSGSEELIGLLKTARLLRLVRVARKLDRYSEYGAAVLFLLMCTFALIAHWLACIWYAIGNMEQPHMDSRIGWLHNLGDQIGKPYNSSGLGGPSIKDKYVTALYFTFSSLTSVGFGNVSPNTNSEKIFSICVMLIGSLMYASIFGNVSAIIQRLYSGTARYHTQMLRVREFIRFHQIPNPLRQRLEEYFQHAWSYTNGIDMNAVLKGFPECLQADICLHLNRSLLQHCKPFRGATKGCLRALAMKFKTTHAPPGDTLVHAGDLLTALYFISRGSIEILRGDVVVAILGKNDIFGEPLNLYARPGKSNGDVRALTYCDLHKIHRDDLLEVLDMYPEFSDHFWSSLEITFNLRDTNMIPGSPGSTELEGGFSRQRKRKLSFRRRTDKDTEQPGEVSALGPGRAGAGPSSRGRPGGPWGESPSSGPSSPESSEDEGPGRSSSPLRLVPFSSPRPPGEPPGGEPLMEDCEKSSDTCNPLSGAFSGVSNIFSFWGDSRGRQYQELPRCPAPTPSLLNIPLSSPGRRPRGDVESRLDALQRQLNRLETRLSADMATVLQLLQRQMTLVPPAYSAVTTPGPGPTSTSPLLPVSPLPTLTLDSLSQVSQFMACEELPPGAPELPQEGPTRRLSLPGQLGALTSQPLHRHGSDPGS", "assay": "primary screen, population patch clamp on CHO cells stably expressing hERG", "units": {"hERG current change (%, negative = inhibition) at 10uM": "%"}}
{"smiles": "Cc1ccc(NC(=O)CCC(=O)NNC(=O)c2ccccc2Cl)c(C)c1", "hERG current change (%, negative = inhibition) at 10uM": 7.76}
{"smiles": "c1ccc(-c2nc(C3CCCCC3)no2)cc1", "hERG current change (%, negative = inhibition) at 10uM": -0.00972}
{"smiles": "COc1cc(/C=N/N2C(C)CCCC2C)cc(OC)c1O", "note": "(stereo not drawn)", "hERG current change (%, negative = inhibition) at 10uM": 1.42}
{"smiles": "Cc1ccccc1Cn1c(=O)n(CCC(=O)NCc2ccc3c(c2)OCO3)c(=O)c2ccccc21", "hERG current change (%, negative = inhibition) at 10uM": 2.06}
{"smiles": "O=C(NCCCN1CCN(c2ccccc2F)CC1)C1CCN(S(=O)(=O)c2cccs2)CC1", "hERG current change (%, negative = inhibition) at 10uM": -60.6}
{"smiles": "Cl.NCCOc1ccccc1OCCN", "hERG current change (%, negative = inhibition) at 10uM": 22.1}
{"smiles": "COC(=O)C1(C#N)C(c2ccccc2)C1(C(=O)OC)C(=O)OC", "note": "(stereo not drawn)", "hERG current change (%, negative = inhibition) at 10uM": 12.5}
{"smiles": "CC(OC(=O)CCCN=C1NS(=O)(=O)c2ccccc21)C(=O)N(C)c1ccccc1", "note": "(stereo not drawn)", "hERG current change (%, negative = inhibition) at 10uM": 6.83}
{"smiles": "O=C(NCc1ccc(Cl)cc1)c1ccc2c(=O)n(CC3CCCO3)c(=S)[nH]c2c1", "note": "(stereo not drawn)", "hERG current change (%, negative = inhibition) at 10uM": 7.01}
{"smiles": "CCOC(=O)C1(CCc2ccccc2)CCN(Cc2cc(OC)c(OC)cc2OC)CC1", "hERG current change (%, negative = inhibition) at 10uM": -77.4}
{"smiles": "Nc1nc(NC2CCCCC2)nc(NCCO)c1[N+](=O)[O-]", "hERG current change (%, negative = inhibition) at 10uM": -0.0226}
{"smiles": "CC(C)(CN1CCNCC1)NS(=O)(=O)c1ccc(Cl)cc1", "hERG current change (%, negative = inhibition) at 10uM": -60.3}
{"smiles": "COc1ccc(-c2cc(C(=O)Nc3cccnc3Cl)no2)cc1OC", "hERG current change (%, negative = inhibition) at 10uM": 16.6}
{"smiles": "CCCCNC(=O)c1onc(CSc2nc3ccccc3[nH]2)c1C(=O)NCCCC", "hERG current change (%, negative = inhibition) at 10uM": -35.6}
{"smiles": "CC(NC(=O)COc1cccnc1[N+](=O)[O-])c1ccc(Cl)cc1", "note": "(stereo not drawn)", "hERG current change (%, negative = inhibition) at 10uM": -5.73}
{"smiles": "Cc1onc(-c2c(F)cccc2Cl)c1C(=O)NC(=S)Nc1c(C)n(C)n(-c2ccccc2)c1=O", "hERG current change (%, negative = inhibition) at 10uM": 13.7}
{"smiles": "O=C(CCC1CCCC1)N=C1SC2CS(=O)(=O)CC2N1Cc1ccccc1", "note": "(stereo not drawn)", "hERG current change (%, negative = inhibition) at 10uM": 14.7}
{"smiles": "COc1cc2c(c(OC)c1O)C(=O)CO2", "hERG current change (%, negative = inhibition) at 10uM": 27.2}
{"smiles": "COc1ccc(S(=O)(=O)N2CCCCCC2)cc1C(=O)N(C)CC(=O)Nc1ccccc1Br", "hERG current change (%, negative = inhibition) at 10uM": -2.82}
{"smiles": "CC(=O)c1ccc(NC(=O)CSc2nc(N)c3cc4c(nc3n2)CCCC4)cc1", "hERG current change (%, negative = inhibition) at 10uM": 8.91}
{"smiles": "CCCCn1c(N)c(N(CC)C(=O)/C=C/c2ccco2)c(=O)[nH]c1=O", "hERG current change (%, negative = inhibition) at 10uM": 0.82}
{"smiles": "Cc1ccc(NS(=O)(=O)c2c(C)[nH]c(C)c2C(=O)N2CCCCC2)c(Cl)c1", "hERG current change (%, negative = inhibition) at 10uM": -2.23}
{"smiles": "O=C(NCCCO)/C(=C\\C=C\\c1ccccc1)NC(=O)c1ccccc1Cl", "hERG current change (%, negative = inhibition) at 10uM": -12.6}
{"smiles": "Cc1nc([N+](=O)[O-])c(Br)n1Cc1ccccc1", "hERG current change (%, negative = inhibition) at 10uM": 4.73}
{"smiles": "O=c1[nH]c2cc(S(=O)(=O)CCO)ccc2o1", "hERG current change (%, negative = inhibition) at 10uM": 23.1}
{"smiles": "CCOc1ccc(NC(=O)CSc2cn[nH]n2)cc1", "hERG current change (%, negative = inhibition) at 10uM": 3.89}
{"smiles": "Cc1c(C=NCCOCc2ccccc2)cnn1C", "hERG current change (%, negative = inhibition) at 10uM": 7.22}
{"smiles": "Cc1c(NC(=O)/C(C#N)=C/c2c(N3CCCCC3)nc3ccccn3c2=O)c(=O)n(-c2ccccc2)n1C", "hERG current change (%, negative = inhibition) at 10uM": 4.99}
{"smiles": "C/C(=N/NC(=O)c1cccc(Br)c1)C1CC2CCC1C2", "note": "(stereo not drawn)", "hERG current change (%, negative = inhibition) at 10uM": 15.1}
{"smiles": "Cc1cnc(C(=O)OCC(=O)c2ccccc2)cn1", "hERG current change (%, negative = inhibition) at 10uM": 16.7}
{"smiles": "Cc1nonc1-c1ccc2c(c1)OCO2", "hERG current change (%, negative = inhibition) at 10uM": 7.77}
{"smiles": "Cc1ccc(N2CC(C(=O)N3CCOCC3)CC2=O)cc1C", "note": "(stereo not drawn)", "hERG current change (%, negative = inhibition) at 10uM": 6.52}
{"smiles": "COc1cc2c(-c3ccccc3O)nc3c(c(C)nn3-c3ccccc3)c2cc1OC", "hERG current change (%, negative = inhibition) at 10uM": 0.924}
{"smiles": "O=C1c2ccccc2C(=O)C1(CO)c1ccccc1", "hERG current change (%, negative = inhibition) at 10uM": 27.7}
{"smiles": "COCCCNC(=S)N(Cc1ccccc1)Cc1ccc(F)cc1", "hERG current change (%, negative = inhibition) at 10uM": -18.8}
{"smiles": "CN(CCOc1ccccc1)C(=O)c1cc([N+](=O)[O-])cc([N+](=O)[O-])c1", "hERG current change (%, negative = inhibition) at 10uM": -56.9}
{"smiles": "O=C(NCCN1CCOCC1)c1ccc2c(c1)N(Cc1ccccc1)CCS2", "hERG current change (%, negative = inhibition) at 10uM": -17.7}
{"smiles": "Cc1ccccc1OCC(=O)Nc1ccc(S(=O)(=O)Nc2onc(C)c2C)cc1", "hERG current change (%, negative = inhibition) at 10uM": 23.9}
{"smiles": "COC(=O)c1ccc(C)c(NC(=O)CN(c2cc(OC)ccc2OC)S(C)(=O)=O)c1", "hERG current change (%, negative = inhibition) at 10uM": -36.7}
{"smiles": "CC(=O)N/N=C(\\C)CCc1ccccc1", "hERG current change (%, negative = inhibition) at 10uM": 15.7}
{"smiles": "N#CC1(NC(=O)COC(=O)c2nc(Cl)ccc2Cl)CCCCC1", "hERG current change (%, negative = inhibition) at 10uM": 10.4}
{"smiles": "COc1ccc(C(=O)NCCCN2CCOCC2)cc1S(=O)(=O)N1CCCc2ccccc21", "hERG current change (%, negative = inhibition) at 10uM": -29.7}
{"smiles": "CCCN1CCC(=O)N([C@H](CSc2ccccc2)Cc2ccccc2)CC1", "hERG current change (%, negative = inhibition) at 10uM": -69.6}
{"smiles": "CCOc1ccc(OCC(=O)Nc2cc3c(cc2C(=O)O)OCCCO3)cc1", "hERG current change (%, negative = inhibition) at 10uM": 18.5}
{"smiles": "O=C1OCc2cc(NC(=O)C3CCCO3)ccc21", "note": "(stereo not drawn)", "hERG current change (%, negative = inhibition) at 10uM": 7.02}
